The chains are these.
B1: CPEB3 Ribozyme (parent)
chain: UAACAGGGGGCCACAGCAGAAGCGUUCACGUCGCAGCCCCUGUCAGAUUCUGGUGAAUCUGCGAAUUCUGCUGUAUAUCUC

Read counts are not given, so values of variants with three or more changes are uncertain.

Variants of B1 are the subject of the series. As to the kind of experiment: self-cleavage, relative activity (ratio to wild type); higher = more cleavage; in vitro, sequencing. Summed up: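 Relative activity was defined as the cleaved/total read fraction for a variant divided by the same fraction for the unmutated ribozyme. CPEB3 self-cleaving ribozyme libraries were made by rounds of error-prone PCR, barcoded, and transcribed in vitro with T7 RNA polymerase for 5 hours at 37°C, and cleavage ran through transcription plus a 15 min DNase I step before EDTA. Illumina sequencing of template-switched reverse transcripts gave the reads, and DNA sequencing mapped the barcodes. Averages come from three batches, using variants with at least 5 reads.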
As for UAACAGGGGGCUACAGCAGAAGCGUUCACGACGCAGCCCCUGUCAGGUUCUGGUGAGUCUGCGAAUUCUGCUGUAUAUCCC [C12U U31A A47G A57G U80C], the self-cleavage turned out to be 0.35.

For the variant UAACAGGGGGCUACAGCAGAAGCGUCCACGUCGCAGCCCCCGCCAGAUUCUGGUGAAUCUGCGUAUUCUGCUGUAUAUCUC [C12U U26C U41C U43C A64U], the self-cleavage was 0.26.

Regarding UAACAGGGGGCUACAGCAGAAGCGUUCACGUCGCAGCCCCUGUCAGAUUCUGGUGAAUCUGCUAAUUCUGCUGUAUGUCUC [C12U G63U A77G], the self-cleavage stood at 1.24.

With UAACAGGGGGCUACAGCAGAAGCGCUCACGUCGCAGCCCCUGUCAGAUUCUGGUGUAUCUGCGAAUUCUGCUGUAUAUCUC [C12U U25C A56U], the self-cleavage was 0.11.

Regarding UAACAGGGGGCUACAGCAGAAGCGCUCACGUCGCAGCCCCUGUCAGAUUCUGGUGGAUCUGCGAAUUCUGCUGUAUAUCUC [C12U U25C A56G], the self-cleavage is 0.2.

As to UAACAGGGGGCUACAGCAGAAGCGUUCACAUCGCAGCCCCCGUCAGAUUCUGGUGAAUCUGCGAAUUCCGCUGUAUAUCUC [C12U G30A U41C U69C], the self-cleavage was determined as 0.13.

In the case of UAACAGGGGGCUACAGCAGAAGCGCUCACGUCGCAGCCCCUGUCAGCUUCUGGUGAAUCUGCGAAUUCUGCUGUAUAUCUC [C12U U25C A47C], the self-cleavage was determined as 0.32.

For the variant UAACAGGGGGCCCCAGCGGAAGCGAUCACGUCGCAGCCCCUGUCAGAUUCUGGUGAAUCUGCGAAUUCUGCUGUAUAUCUC [A13C A18G U25A], the self-cleavage came out at 0.26.

For UAACAGGGGGCCCCUGCAGUAGCGUUCACGUCGCAGCCCCUGUCAGAUUCUGGUGAAUCUGCGAAUUCUGCUGUAUAUCAC [A13C A15U A20U U80A], the self-cleavage came to 0.14.

Regarding UAACAGGGGGCCCCUGCAGAAGCCUUCACGUCGCGGCCACUGUCAGAUUCUGGUGAAUCUGCGAAUUCAGCUGUAUAUCUC [A13C A15U G24C A35G C39A U69A], the self-cleavage was found to be 0.2.

Take UAACAGGGGGCUACAGCAGAAGCGUUCACGACGCAGCCCCUGACAGAUUCUGGUGAAUCUGCGAAUUCUGCUGUAUAUCUC [C12U U31A U43A]: the self-cleavage was found to be 0.87.

Take UAACAGGGGGCUACAGCAGAAGCGCUCACGUCGCAGCCCCUGUCAGAUUCUGGUGGAUCUGCGAAUUAUGCUGUAUAUCUC [C12U U25C A56G C68A]: the self-cleavage stood at 0.08.

Regarding UAACAGGGGGCUACAGCAGAAGCGUUCACGUCGCAGCCCCCGUCAGAUUCAGGUGAAUCUGCGAACUCUGCCGUAUAUCUC [C12U U41C U51A U66C U72C], the self-cleavage was 1.09.

For the variant UAACAGGGGGCUACAGCAGAAGCGUCCACGUCGCAGCCCCUGUCAGAUUCUGGUGAAUCUGCGAAUUCUGCAGUAUAUCUC [C12U U26C U72A], the self-cleavage turned out to be 0.16.

UAACAGGGGGCUACAGCAGAAGCGUUCACGUCGCAGCCCCUGUCAGAUUCUGGAGAACCCGCGGAUUCUGCUGUAUAUCUC [C12U U54A U58C U60C A64G]: the self-cleavage stood at 0.28.

With UAACAGGGGGCUACAGCAGAAGCGUUCACGUCGCACCCCCUGUCAGAUUCUGGUGAAUCUGCGAAUUCUGCUGUAUACCAC [C12U G36C U78C U80A], the self-cleavage amounted to 0.16.

As to UAACAGGGGGCCCCAGCUGAAGCGUUUACGUCGCAGCCCCUGUCAGAUUCUGGUGAACCCGCGAAUUCUGCUGUAUAUCUC [A13C A18U C27U U58C U60C], the self-cleavage was found to be 0.09.

For UAACAGGGGGCUACAGCAGAAGCGUCCACGUGGCAGCCCCUGCCGGAUUCUGGUGAAUCUGCGAAUUCUGCUGUAUAUCUC [C12U U26C C32G U43C A45G], the self-cleavage worked out at 0.16.

With UAACAGGGGGCUACAGCAGAAGCGUUCACGUCGCAGCCCCUGACAGAUUCUGGAGAAUCUGCGAAUUCUGCUGUAUAUCUC [C12U U43A U54A], the self-cleavage was found to be 1.29.

In the case of UAACAGGGGGCUACAGCAGAAGCGUUCACGUCGCAGCCCCUGUCAGAAUCUGGAGAAUCUGCGAAUUCUGCCGUAUAUCUC [C12U U48A U54A U72C], the self-cleavage was 0.86.

Consider UAACAGGGGGCUACAGCAGAAGCGUCCUCGUCGCAGCCCCUGUCAGAUUCUGGUGAAUCUGCGAAUUCUGCUGUAUAUCCC [C12U U26C A28U U80C], for which the self-cleavage came to 0.39.

Take UAACAGGGGGCUACAGCAGAAGCGUACACGUCGCAGCCCCUGUCAGGUUCUGGUGAAUCUGCGAAUUCUGCUGUAUAUCUC [C12U U26A A47G]: the self-cleavage amounted to 1.15.

Consider UAACAGGGGGCUACAGCAGAAGCGUUCACGGCGCAGCCCCGGUCAGACUCAGGAGAAUCUGCGAAUUCUGCUGUAUAUCUC [C12U U31G U41G U48C U51A U54A], for which the self-cleavage amounted to 0.05.

For UAACAGGGGGCUACAGCAGAAGCGUCCUCGUCGCAGCCCCCGUCAGAUUCUGGUGAAUCUGCGAAUUCUGCUGUAUAUCUC [C12U U26C A28U U41C], the self-cleavage was found to be 0.3.

UAACAGGGGGCUACAGCAGAAGCGUUCACGUCGCAGCCCCUGUCAGAUUCUGGUGAAUCUGCGAAUUCUGCUGUAUACCCC [C12U U78C U80C]: the self-cleavage came out at 0.94.

UAACAGGGGGCUACAGCAGAAGCGUUCACGUCGCAGCCCCCGUCAGAUUCAGGUGAACCUGCGAAUUCUGCCGUAUAUCUC [C12U U41C U51A U58C U72C]: the self-cleavage is 0.96.

On to UAACAGGGGGCUACAGCAGAAGCGCUCACGUCGCAGCCCCUGUCAGAUUCUGGUGAGUCUGCGAAUUCUGCUGUAUAUCCC [C12U U25C A57G U80C], for which the self-cleavage turned out to be 0.3.

On to UAACAGGGGGCUACAGCAGAAGCAUCCGCGUCGCAGCUCCUGUCAGAUUCUGGUGAAUCUGCGAAUUCCGCUGGAUAUCUC [C12U G24A U26C A28G C38U U69C U74G], for which the self-cleavage was 0.06.

For the variant UAACAGGGGGCUACAGCAGAAGCGUUCACGCCGCAGCGCCUGUCAGAUUCUGGUGGAUCUGCGAAAUCUGCCGUAUAUCCC [C12U U31C C38G A56G U66A U72C U80C], the self-cleavage stood at 0.04.

Regarding UAACAGGGGGCUACAGCAGAAGCGUUCACGUCGCAGCCCCUGUCAGAUUCCGGUGAAUCUGCGAGUUCUGCAGUAUAUCUC [C12U U51C A65G U72A], the self-cleavage amounted to 0.91.

As to UAACAGGGGGCUACAGCAGAAGCGUCCACGUCGCAGCCCCUGUCAGAUUCUGGUGAGUCUGCGAAUUCUGCUGUAUAUCUC [C12U U26C A57G], the self-cleavage was 0.57.

Take UAACAGGGGGCUACAGCAGAAGCGUUCACGCCGCAGCCCCAGUCAGAUUCUGGUGAAUCUGCGAGUUCUGCUGUAUAUCUC [C12U U31C U41A A65G]: the self-cleavage is 0.07.

In the case of UAACAGGGGGCCCCAGCGGAAGCGUUCACGUCGCAGCCCCUGUCAGAUUCUGGUGAAUCUGCGAAUUCAGCUGUAUACCUC [A13C A18G U69A U78C], the self-cleavage worked out at 0.53.

On to UAACAGGGGGCUACAGCAGAAGCGUUCACGUCGCAGCCCCUGUCAGACUCUGGUGAAUCUGCGAAUUCUGCUGAAUAUCUC [C12U U48C U74A], for which the self-cleavage amounted to 1.18.

Values taken from the RNAGym collection of RNA variant scans (doi:10.1093/nar/gkz1192).
